This note sets out measurements from publication PMC8673838, “MCPH1 inhibits Condensin II during interphase by regulating its SMC2-Kleisin interface” (eLife, 2021).

Amino acid sequences for entries named in this document (tags omitted). A change or cut given only in a name is not applied to a line headed by its entry.
UniProt O95347: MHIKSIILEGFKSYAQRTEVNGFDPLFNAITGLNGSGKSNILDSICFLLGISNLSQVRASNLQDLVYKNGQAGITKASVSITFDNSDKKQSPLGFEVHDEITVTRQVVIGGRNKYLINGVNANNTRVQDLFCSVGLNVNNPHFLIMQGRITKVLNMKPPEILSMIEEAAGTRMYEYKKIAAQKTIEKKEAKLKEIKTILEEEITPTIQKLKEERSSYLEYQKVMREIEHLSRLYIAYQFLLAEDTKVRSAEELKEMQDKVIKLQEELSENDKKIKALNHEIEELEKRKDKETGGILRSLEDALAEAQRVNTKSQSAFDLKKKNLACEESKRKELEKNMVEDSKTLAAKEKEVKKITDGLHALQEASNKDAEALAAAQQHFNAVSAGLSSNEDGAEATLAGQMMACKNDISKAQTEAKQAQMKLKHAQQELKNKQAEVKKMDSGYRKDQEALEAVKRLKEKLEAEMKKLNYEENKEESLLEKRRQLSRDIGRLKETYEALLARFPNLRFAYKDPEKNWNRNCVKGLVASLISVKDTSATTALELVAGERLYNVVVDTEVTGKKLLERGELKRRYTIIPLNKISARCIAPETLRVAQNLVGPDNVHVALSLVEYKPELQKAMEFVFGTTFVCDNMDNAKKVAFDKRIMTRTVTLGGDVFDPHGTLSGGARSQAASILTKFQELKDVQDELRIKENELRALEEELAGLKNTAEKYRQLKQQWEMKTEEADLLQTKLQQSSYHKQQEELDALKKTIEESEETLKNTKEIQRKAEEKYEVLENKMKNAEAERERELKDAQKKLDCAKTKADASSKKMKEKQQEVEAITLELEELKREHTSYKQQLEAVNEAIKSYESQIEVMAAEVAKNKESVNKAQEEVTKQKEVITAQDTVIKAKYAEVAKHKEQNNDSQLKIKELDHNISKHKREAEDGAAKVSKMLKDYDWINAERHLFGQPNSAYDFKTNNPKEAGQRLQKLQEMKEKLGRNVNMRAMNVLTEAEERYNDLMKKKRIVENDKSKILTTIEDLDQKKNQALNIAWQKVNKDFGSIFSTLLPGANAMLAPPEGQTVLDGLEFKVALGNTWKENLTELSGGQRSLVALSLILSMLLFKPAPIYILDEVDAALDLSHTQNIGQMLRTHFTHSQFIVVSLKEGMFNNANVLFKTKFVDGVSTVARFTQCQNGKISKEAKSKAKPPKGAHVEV
UniProt Q9NTJ3: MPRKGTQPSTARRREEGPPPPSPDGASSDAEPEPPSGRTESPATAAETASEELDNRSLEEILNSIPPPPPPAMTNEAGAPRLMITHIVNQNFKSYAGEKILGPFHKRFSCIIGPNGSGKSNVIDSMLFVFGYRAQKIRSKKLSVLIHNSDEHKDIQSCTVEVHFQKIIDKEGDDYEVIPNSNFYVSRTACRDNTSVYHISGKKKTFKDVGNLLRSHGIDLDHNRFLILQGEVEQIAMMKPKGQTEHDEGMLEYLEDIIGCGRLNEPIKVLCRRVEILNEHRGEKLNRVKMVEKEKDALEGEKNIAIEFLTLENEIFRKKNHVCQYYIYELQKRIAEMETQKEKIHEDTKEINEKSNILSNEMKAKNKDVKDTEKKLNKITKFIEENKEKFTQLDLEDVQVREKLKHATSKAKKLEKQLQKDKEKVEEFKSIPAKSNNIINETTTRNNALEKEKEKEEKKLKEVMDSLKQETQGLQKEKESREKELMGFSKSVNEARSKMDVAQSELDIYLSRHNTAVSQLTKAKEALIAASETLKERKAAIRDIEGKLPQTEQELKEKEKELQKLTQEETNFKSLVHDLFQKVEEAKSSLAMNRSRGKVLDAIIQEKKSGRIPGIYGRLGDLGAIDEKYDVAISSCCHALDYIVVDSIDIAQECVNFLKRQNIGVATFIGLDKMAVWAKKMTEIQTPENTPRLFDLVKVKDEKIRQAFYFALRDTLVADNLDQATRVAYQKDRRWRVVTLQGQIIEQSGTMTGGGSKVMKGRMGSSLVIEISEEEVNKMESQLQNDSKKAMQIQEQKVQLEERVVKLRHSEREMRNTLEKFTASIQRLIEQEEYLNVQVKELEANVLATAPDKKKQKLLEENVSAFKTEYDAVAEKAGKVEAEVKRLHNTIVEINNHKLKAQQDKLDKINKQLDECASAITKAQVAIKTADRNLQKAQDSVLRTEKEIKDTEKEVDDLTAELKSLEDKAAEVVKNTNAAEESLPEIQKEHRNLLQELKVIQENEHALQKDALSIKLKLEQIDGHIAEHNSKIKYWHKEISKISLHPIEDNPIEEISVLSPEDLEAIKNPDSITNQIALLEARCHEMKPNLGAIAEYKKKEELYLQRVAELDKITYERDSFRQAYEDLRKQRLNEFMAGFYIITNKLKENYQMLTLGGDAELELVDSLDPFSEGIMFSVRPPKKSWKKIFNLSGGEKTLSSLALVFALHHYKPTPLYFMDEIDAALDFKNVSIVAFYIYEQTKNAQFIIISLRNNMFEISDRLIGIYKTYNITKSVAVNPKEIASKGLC
UniProt Q6IBW4: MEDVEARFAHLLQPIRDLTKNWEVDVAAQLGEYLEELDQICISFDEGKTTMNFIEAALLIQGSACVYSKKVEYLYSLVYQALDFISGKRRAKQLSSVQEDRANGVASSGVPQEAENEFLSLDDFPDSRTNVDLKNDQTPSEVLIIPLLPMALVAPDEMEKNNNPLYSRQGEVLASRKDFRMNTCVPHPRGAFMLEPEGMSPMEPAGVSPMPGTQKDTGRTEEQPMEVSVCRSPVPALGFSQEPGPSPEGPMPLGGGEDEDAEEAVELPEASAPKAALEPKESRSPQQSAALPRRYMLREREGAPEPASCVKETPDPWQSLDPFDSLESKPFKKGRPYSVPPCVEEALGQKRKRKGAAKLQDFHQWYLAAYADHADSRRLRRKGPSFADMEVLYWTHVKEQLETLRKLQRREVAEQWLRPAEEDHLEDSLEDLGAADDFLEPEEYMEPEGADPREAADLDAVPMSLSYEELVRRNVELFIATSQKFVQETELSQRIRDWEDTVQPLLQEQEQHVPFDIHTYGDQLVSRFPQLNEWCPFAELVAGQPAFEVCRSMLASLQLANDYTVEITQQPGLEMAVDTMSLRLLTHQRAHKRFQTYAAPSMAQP
UniProt P42695: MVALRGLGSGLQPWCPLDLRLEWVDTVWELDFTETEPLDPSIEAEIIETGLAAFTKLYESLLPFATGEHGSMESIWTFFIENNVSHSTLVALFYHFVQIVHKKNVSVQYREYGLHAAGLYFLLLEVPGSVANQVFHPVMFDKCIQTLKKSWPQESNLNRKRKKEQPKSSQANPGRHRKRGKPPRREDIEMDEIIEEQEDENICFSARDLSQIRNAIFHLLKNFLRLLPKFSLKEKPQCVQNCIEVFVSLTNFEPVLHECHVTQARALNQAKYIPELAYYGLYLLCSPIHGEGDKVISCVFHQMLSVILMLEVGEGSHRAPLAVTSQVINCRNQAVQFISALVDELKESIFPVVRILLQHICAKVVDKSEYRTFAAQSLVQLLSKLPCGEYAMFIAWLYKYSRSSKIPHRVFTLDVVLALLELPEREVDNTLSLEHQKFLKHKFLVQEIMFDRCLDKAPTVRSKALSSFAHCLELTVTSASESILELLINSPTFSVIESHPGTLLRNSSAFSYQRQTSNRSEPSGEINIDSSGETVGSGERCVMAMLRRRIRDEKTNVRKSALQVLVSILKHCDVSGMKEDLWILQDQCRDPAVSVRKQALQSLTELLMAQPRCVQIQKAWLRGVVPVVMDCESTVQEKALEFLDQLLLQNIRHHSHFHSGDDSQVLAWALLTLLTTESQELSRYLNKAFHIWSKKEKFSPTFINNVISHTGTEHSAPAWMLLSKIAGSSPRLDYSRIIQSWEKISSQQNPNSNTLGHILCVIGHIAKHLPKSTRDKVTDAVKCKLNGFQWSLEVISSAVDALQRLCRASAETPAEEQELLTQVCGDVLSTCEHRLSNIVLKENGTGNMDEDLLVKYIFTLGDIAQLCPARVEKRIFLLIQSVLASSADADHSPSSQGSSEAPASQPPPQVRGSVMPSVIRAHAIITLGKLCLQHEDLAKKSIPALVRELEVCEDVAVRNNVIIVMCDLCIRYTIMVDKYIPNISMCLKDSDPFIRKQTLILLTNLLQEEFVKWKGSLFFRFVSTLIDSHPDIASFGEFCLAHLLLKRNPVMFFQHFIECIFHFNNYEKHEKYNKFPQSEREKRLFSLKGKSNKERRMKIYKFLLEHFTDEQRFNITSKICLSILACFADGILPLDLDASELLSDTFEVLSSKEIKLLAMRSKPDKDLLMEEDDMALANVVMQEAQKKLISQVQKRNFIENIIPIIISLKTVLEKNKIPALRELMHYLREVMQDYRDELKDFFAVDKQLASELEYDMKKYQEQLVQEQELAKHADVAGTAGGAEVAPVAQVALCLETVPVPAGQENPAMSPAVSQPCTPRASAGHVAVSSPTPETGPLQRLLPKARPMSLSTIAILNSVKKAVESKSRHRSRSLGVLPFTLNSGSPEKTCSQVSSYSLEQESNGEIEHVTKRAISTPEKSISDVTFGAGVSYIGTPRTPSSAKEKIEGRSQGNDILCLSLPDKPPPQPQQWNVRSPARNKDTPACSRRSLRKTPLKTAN
UniProt Q86XI2: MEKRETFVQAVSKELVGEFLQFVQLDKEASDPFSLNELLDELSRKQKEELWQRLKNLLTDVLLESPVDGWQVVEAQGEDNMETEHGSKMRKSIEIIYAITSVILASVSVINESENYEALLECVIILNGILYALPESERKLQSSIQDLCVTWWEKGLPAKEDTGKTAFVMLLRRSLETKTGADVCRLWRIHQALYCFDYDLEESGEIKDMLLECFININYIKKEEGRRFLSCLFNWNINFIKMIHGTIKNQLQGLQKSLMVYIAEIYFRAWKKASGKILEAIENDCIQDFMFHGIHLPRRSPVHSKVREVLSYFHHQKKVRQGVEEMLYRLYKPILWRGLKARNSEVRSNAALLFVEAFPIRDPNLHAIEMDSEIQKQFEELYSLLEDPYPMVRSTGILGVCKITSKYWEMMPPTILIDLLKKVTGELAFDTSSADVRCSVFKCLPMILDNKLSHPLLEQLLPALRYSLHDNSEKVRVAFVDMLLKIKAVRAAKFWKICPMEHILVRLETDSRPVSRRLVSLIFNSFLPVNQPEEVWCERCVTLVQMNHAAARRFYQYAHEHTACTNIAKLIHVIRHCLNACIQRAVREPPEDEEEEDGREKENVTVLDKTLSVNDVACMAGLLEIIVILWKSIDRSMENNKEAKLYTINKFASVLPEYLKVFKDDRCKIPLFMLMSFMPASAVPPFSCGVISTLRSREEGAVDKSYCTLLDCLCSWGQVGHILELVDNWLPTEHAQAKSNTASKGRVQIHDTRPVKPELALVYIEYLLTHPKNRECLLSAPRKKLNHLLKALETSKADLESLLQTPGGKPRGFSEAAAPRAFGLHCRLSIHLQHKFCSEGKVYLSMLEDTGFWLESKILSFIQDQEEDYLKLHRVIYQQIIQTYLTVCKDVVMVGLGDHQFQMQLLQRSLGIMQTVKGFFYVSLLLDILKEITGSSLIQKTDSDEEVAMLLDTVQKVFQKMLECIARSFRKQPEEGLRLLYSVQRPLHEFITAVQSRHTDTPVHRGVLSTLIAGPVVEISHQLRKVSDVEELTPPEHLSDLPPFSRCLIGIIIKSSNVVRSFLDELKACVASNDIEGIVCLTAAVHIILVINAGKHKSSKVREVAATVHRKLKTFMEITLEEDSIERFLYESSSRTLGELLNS

These are yes or no findings as the source states them, for the method shown. For some assays here: In cells and extracts the contact can be indirect. Some binding calls cover weakened binding; strength is not graded here. For some assays here: Sequences can lack the tags named with a protein.

The target of test [1] is T1, 5-FAM-labelled MCPH1_(407-424) peptide (human).
T1 sequence (peptide, 5-FAM on the N-terminus): CGESSYDDYFSPDNLKER
The test can be described thus: condition: 5 µM (highest concentration of the complex); fluorescence polarisation; direct binding; 0.3 µM 5-FAM peptide, 0.625-5 µM condensin II complex; 20 mM Tris pH 7.5, 200 mM NaCl, 1 mM DTT; room temperature; both purified. (In fluorescence polarisation assays a small probe gives low polarisation when free and higher when bound to something large.)

Test [2] addresses T2, mouse MCPH1-GFP lacking the central domain motif (residues 400-414) (mouse (endogenous in E14)) (UniProt Q7TT79).
T2 sequence: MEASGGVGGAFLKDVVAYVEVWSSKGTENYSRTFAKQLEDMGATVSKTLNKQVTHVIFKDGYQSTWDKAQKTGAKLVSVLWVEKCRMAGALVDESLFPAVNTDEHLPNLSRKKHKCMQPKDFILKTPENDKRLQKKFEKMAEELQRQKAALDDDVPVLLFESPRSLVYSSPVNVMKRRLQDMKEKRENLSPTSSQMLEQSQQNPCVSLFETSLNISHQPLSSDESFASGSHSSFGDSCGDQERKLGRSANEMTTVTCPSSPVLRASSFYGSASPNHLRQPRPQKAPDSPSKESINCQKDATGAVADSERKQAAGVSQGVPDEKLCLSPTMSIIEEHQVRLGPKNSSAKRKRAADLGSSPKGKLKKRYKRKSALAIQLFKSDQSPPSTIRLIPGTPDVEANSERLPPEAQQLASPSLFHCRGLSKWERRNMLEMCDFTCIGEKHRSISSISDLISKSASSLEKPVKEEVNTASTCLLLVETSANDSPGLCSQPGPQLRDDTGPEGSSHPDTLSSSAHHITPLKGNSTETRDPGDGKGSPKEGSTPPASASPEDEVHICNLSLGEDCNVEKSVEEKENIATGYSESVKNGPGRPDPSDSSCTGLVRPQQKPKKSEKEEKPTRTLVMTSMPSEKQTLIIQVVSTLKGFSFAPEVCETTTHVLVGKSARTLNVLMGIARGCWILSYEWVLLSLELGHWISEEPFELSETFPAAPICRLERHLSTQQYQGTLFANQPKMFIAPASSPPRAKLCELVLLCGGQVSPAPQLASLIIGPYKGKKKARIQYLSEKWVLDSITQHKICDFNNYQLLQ
The test can be described thus: co-IP; nuclear extracts of E14 mouse ES cells, 1 mg protein, GFP-Trap agarose overnight at 4 °C, 20 mM Tris pH 7.5, 200 mM NaCl, 1 % Triton X-100, 0.1 % deoxycholate, nuclease; western blot or in-gel Halo-TMR. (In general: A western blot detects proteins with antibodies after separation by electrophoresis.)

Test [3] has as its target T3, mouse MCPH1-GFP (mouse (endogenous in E14)) (UniProt Q7TT79).
T3 sequence: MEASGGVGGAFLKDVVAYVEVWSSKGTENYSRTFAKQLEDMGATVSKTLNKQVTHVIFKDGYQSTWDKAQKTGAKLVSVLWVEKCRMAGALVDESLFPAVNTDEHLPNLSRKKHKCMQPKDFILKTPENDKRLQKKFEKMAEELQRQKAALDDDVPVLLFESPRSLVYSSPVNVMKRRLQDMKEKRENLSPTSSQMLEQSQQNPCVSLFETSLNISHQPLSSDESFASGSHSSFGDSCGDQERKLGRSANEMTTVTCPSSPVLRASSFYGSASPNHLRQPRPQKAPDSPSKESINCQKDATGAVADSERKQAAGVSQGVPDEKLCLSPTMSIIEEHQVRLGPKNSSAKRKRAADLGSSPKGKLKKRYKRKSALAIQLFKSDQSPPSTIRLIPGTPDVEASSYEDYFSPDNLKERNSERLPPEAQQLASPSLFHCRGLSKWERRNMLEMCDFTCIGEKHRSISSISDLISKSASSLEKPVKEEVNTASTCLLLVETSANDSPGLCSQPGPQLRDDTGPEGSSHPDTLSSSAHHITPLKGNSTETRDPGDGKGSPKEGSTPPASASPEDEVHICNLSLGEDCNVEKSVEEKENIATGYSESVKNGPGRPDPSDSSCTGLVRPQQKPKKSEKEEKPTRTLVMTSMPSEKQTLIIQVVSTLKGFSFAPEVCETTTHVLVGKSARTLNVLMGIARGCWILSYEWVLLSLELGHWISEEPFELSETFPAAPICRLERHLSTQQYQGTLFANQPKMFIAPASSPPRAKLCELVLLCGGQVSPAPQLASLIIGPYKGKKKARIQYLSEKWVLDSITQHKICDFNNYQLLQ
The description is as above.

Test [4] has as its target T4, mouse NCAPH2-GFP (mouse (endogenous in E14)) (UniProt Q8BSP2).
T4 sequence: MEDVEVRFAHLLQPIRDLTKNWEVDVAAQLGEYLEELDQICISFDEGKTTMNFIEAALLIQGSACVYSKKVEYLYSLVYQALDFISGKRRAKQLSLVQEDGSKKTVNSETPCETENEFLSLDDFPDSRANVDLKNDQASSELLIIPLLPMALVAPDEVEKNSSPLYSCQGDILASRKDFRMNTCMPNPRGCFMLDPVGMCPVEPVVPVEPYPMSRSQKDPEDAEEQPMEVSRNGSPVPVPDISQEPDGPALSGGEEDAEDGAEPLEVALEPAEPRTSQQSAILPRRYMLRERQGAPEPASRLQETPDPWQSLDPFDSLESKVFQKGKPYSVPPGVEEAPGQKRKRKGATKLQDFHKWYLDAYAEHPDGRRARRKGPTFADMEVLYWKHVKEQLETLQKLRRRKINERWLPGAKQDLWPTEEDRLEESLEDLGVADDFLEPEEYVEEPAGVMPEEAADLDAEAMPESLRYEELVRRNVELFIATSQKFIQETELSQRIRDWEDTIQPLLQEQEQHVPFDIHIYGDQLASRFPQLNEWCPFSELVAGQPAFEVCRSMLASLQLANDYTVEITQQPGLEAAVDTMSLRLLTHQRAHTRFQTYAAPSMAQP
The test is described as above.

Test [5] concerns the target human condensin II pentameric complex (SMC2, SMC4, NCAPH2, NCAPD3, NCAPG2) (human) (UniProt O95347+Q9NTJ3+Q6IBW4+P42695+Q86XI2). The test can be described thus: condition: at least a 10-fold molecular excess over 0.1 µM condensin complex; pull-down; strep-tagged condensin complexes (0.1 µM) with at least a 10-fold molecular excess of MBP MCPH1 constructs or MBP, Strep-tactin sepharose, 20 mM Tris pH 7.5, 150 mM NaCl, 10 % glycerol, 1 mM DTT; five washes; Coomassie or silver stain; both purified.

As to “tetrameric condensin II lacking NCAPG2 (from UniProt O95347 1-1197; Q9NTJ3 1-1288; Q6IBW4 1-605; P42695 1-1498) (complex)”, the binding result in test [1] is “no binding”.

B1: mouse NCAPH2-Halo (protein, UniProt Q8BSP2 1-607)
chain: T4 sequence
modifications: Halo-TMR ligand on the Halo-tag
Take B1: the binding result is “no binding” in test [2] and “binds” in test [3].

B2: mouse MCPH1, endogenous, untagged (protein, UniProt Q7TT79 1-822)
chain: T3 sequence
With B2, the binding entry in test [4] is recorded as “binds”.

B3: MBP-MCPH1_(1-195) (domain or fragment, UniProt Q8NEM0 1-195)
chain: MAAPILKDVVAYVEVWSSNGTENYSKTFTTQLVDMGAKVSKTFNKQVTHVIFKDGYQSTWDKAQKRGVKLVSVLWVEKCRTAGAHIDESLFPAANMNEHLSSLIKKKRKCMQPKDFNFKTPENDKRFQKKFEKMAKELQRQKTNLDDDVPILLFESNGSLIYTPTIEINSRHHSAMEKRLQEMKEKRENLSPTSS
B3: the binding entry in test [5] is reported as “no binding”.
